Measured values taken from PubChem BioAssay AID686971 (National Center for Advancing Translational Sciences (NCATS), 2013).
Screen size: about 360,000 compounds; about 7,500 (2.1%) were called active. The shares of active, inactive and inconclusive entries below differ from those in the screen. The call rests on the fitted dose curve; in most records, active means well fitted cell-killing curve with a large enough effect; inconclusive means small, poorly fitted or top-dose-only effect, or effect the other way, or another doubt; inactive means no such curve, though single readings can be large or run the other way. No potency is given beside an inconclusive call; the fits are too rough.

experiment: qHTS for induction of synthetic lethality in tumor cells producing 2HG: qHTS for the HT-1080-IDH1KD cell line; settings: HT-1080 IDH1 knockdown viability, ATP luminescence, 48 h; activity, negative = toxicity: at 46.1 µM (top of the series) unless noted;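 on activity, negative = toxicity: 0% = DMSO wells and -100% = cell-free medium wells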
Method in brief: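 % activity derives from luminescence (CellTiter-Glo), normalised to DMSO and no-cell wells. HT-1080-IDH1KD cells, 750/well, had 48 h compound exposure at 37 °C.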
Potency means the concentration at half of the fitted maximal effect; tags describe the fitted curve by direction and shape.

For `O=C(CSc1nnc(SCc2cccc3ccccc23)s1)N/N=C/c1c[nH]c2ccccc12`, which Potency is on record?
The Potency was inconclusive [cytotoxic, single point].

With `FC(F)(F)c1cnc(NNC(=S)Nc2ccc(Cl)cc2)c(Cl)c1` as the compound, how does the Potency read?
Its Potency is inconclusive [cytotoxic, full curve].

For `COc1ccc(C(OCC(O)CNCCc2ccccc2)c2ccc(OC)cc2)cc1` (centres undefined), which Potency is on record?
The Potency was active: 23.1 µM.

With `Cc1ccc2cc(C(c3nnnn3CC3CCCO3)N3CCc4ccccc4C3)c(=O)[nH]c2c1` (centres undefined) as the compound, how does the “activity, negative = toxicity” value read?
The value was inactive: 0.068%.

Which “activity, negative = toxicity” value does the source give for `Cc1cc(C)c(N)cc1C` here?
Its value is inactive: 7.13%.

With `CC(=O)c1c(C)oc2ccc(N(C(C)=O)S(=O)(=O)c3cccc([N+](=O)[O-])c3)cc12` as the compound, how does the “activity, negative = toxicity” value read?
Its value is inactive: 4.92%.

With `COc1cccc(NC(=O)Cc2nnc(SCC(=O)NC3=NCCS3)n2C)c1` as the compound, how does the “activity, negative = toxicity” value read?
The value was inactive: -0.222%.

Which Potency does the source give for `C(=C1c2ccccc2-c2ccccc21)c1ccccn1` here?
The Potency was inconclusive [cytotoxic, single point].

For `COC(=O)[C@@]12C[C@@H](CC(=O)NCC3CCCCC3)C(=O)N(Cc3ccco3)C1=CCC(C)(C)C2`, which “activity, negative = toxicity” value is on record?
Its value is inactive: -22.8%.

For `COc1ccc(O)c(/C=N/NC(=O)c2cc(=O)[nH]c3ccccc23)c1`, which Potency is on record?
Its Potency is inconclusive [cytotoxic, single point].

Which Potency does the source give for `COc1ccc(NS(=O)(=O)c2cccc(C(=O)N/N=C/c3c(F)c(F)c(F)c(F)c3F)c2)cc1` here?
The Potency was inconclusive [cytotoxic, single point].

With `O=C(N/N=C/c1cccc2cccnc12)c1ccccc1O` as the compound, how does the Potency read?
Its Potency is inconclusive [cytotoxic, partial curve].

With `Cc1ccccc1S(=O)(=O)N1CCN(c2ccc3c(c2)C2CC3CCN2C(=O)OCc2ccccc2)CC1` (centres undefined) as the compound, how does the “activity, negative = toxicity” value read?
Its value is inactive: 1.03%.

Which Potency does the source give for `CC(=O)C(=Cc1ccc(Cl)cc1)C(=O)c1ccccc1` here?
Its Potency is inconclusive [cytotoxic, full curve].

Which Potency does the source give for `Cc1c(NC(=O)c2cc(-c3ccc(O)cc3)on2)c(=O)n(-c2ccccc2)n1C` here?
Its Potency is inconclusive [cytotoxic, single point].

Which Potency does the source give for `CCc1ccc(CNc2ccc(N3CCN(C(C)=O)CC3)cc2)cc1` here?
The Potency was inconclusive [cytotoxic, single point].

For `N#CC1=C(N)OC2=C(CCc3ccccc32)C1c1ccccc1Cl` (centres undefined), which Potency is on record?
Its Potency is active: 4.61 µM.

Which Potency does the source give for `COC(=O)c1ccc2c(c1O)C(=O)c1ccccc1C2=O` here?
The Potency was inconclusive [cytotoxic, single point].

Which Potency does the source give for `COc1ccc(-c2[nH]ncc2N=Nc2ccccc2)cc1` here?
The Potency was active: 16.4 µM.

With `CCCc1ccc(C(=O)NNc2ccccc2F)cc1` as the compound, how does the Potency read?
Its Potency is active: 6.51 µM.

Which Potency does the source give for `Cc1ccc(-c2nc3ccc(Cl)cn3c2Cc2cccc(F)c2)cc1` here?
Its Potency is inconclusive [cytotoxic, single point].

Which Potency does the source give for `COc1ccc(NC(=O)/C(C#N)=C/c2ccc(Sc3nncn3C)c([N+](=O)[O-])c2)cc1` here?
Its Potency is inconclusive [cytotoxic, single point].

With `CCCc1cc(=O)oc2cc(OC(C)C(=O)NCC3CCC(C(=O)O)CC3)ccc12` (centres undefined) as the compound, how does the Potency read?
Its Potency is inconclusive [cytotoxic, single point].

Which Potency does the source give for `COc1cccc2c1C(=O)c1c(O)c3c(c(O)c1C2=O)C[C@](O)(C(C)=O)C[C@H]3O[C@@H]1C[C@@H](N)[C@@H](O)[C@@H](C)O1` here?
The Potency was active: 0.411 µM.

For `COC(=O)c1cnc(Nc2nc(C(N)Cc3ccc(Cl)cc3)cs2)nc1C(F)(F)F` (centres undefined), which Potency is on record?
Its Potency is inconclusive [cytotoxic, single point].

With `COCc1nnc(NC(=O)c2ccc(S(=O)(=O)N3CCCc4ccccc43)cc2)o1` as the compound, how does the Potency read?
The Potency was active: 20.6 µM.

For `CCC(C)OC(=O)c1[nH]c2c(c1C)C(=O)CC(c1ccc(N(C)C)cc1)C2` (centres undefined), which Potency is on record?
The Potency was active: 23.1 µM.

With `COc1ccc2nc(NC(=O)Nc3ccccc3OC)sc2c1` as the compound, how does the activity, negative = toxicity read?
Its activity, negative = toxicity is inconclusive: -7.94% [cytotoxic].

With `O=C(/C=C/c1ccc2c(c1)OCO2)Nc1nc(-c2ccccc2)cs1` as the compound, how does the Potency read?
The Potency was inconclusive [cytotoxic, partial curve].

Which Potency does the source give for `COC(=O)[C@@]1(Sc2ccc(C)cc2)CC(=O)N(c2cccc(SC)c2)[C@@H]1c1ccccc1` here?
The Potency was inconclusive [cytotoxic, partial curve].

With `COC(=O)C1Cc2c([nH]c3ccccc23)C2(CCN(Cc3ccccc3)CC2)N1` (centres undefined) as the compound, how does the Potency read?
Its Potency is active: 18.4 µM.

Which “activity, negative = toxicity” value does the source give for `COC(=O)c1sccc1S(=O)(=O)Nc1ccc(C)cc1` here?
Its value is inactive: -3.15%.

Which activity, negative = toxicity does the source give for `C=CCn1c(SCC(=O)Nc2sccc2C(N)=O)nc2sc(C)c(C)c2c1=O` here?
The activity, negative = toxicity was inconclusive: -33% [cytotoxic].

With `O=C(/C=C1\NC2(CCCC2)Cc2ccccc21)C(=O)N/N=C/c1ccccc1O` as the compound, how does the Potency read?
The Potency was inconclusive [cytotoxic, partial curve].

For `O=C1C=C(Nc2ccccc2)CC(c2ccccc2)C1` (centres undefined), which Potency is on record?
Its Potency is inconclusive [cytotoxic, single point].

With `CCN1CC=C2C(C#N)=C(N)C(C#N)(C#N)C(c3cc(Cl)ccc3Cl)C2C1` (centres undefined) as the compound, how does the Potency read?
Its Potency is inconclusive [cytotoxic, single point].

Which Potency does the source give for `CC(=O)NC(=S)Nc1ccc2oc(-c3cc(F)c(F)cc3Cl)nc2c1` here?
The Potency was inconclusive [rising, partial curve].

Which Potency does the source give for `N#Cc1c(NC(=O)CSc2nc(-c3ccco3)cc(C(F)(F)F)n2)sc2c1CCCC2` here?
The Potency was inconclusive [cytotoxic, single point].

With `Cc1ccc(NS(=O)(=O)c2ccc(NC(=O)c3ccc(Br)o3)cc2)c(C)c1` as the compound, how does the Potency read?
Its Potency is inconclusive [cytotoxic, partial curve].

For `CN(Cc1ccccc1F)c1cc2c(c3c1ccn3C)C1CCC2O1` (centres undefined), which Potency is on record?
Its Potency is inconclusive [cytotoxic, single point].

For `COc1ccc(CNCc2cc(C)c(OC)cc2C)c(OC)c1`, which Potency is on record?
The Potency was inconclusive [cytotoxic, partial curve].

Which Potency does the source give for `O=C(Nc1ccc2oc(-c3ccc4ccccc4c3)nc2c1)c1ccc2c(c1)OCCO2` here?
Its Potency is inconclusive [cytotoxic, single point].

Which Potency does the source give for `Cc1ccc(C(=O)O/N=C(\N)c2ccccn2)c(C)c1` here?
The Potency was active: 14.6 µM.

With `CCc1nn(CC(=O)N2CCN(c3ccc(OC)cc3)CC2)c(=O)c2cc3occc3n12` as the compound, how does the “activity, negative = toxicity” value read?
The value was inactive: -27.1%.

Which Potency does the source give for `CCc1ccccc1N(C)S(=O)(=O)c1ccc2[nH]cc(C(=O)N3CCc4ccccc43)c(=O)c2c1` here?
Its Potency is inconclusive [cytotoxic, single point].

For `CCN(CC)CCNC(=O)c1sc2ncn(CC(=O)Nc3ccc(C)c(Cl)c3)c(=O)c2c1C`, which Potency is on record?
Its Potency is inconclusive [cytotoxic, single point].

With `COCCN1C(=O)CSCC1(C)C(=O)Nc1ccc2c(c1)OCCO2` (centres undefined) as the compound, how does the “activity, negative = toxicity” value read?
Its value is inactive: 22.9%.

Which Potency does the source give for `COc1ccc(-c2csc(NC3OC(=O)c4ccccc43)n2)cc1` (centres undefined) here?
The Potency was inconclusive [cytotoxic, single point].

For `Cc1nnc(NC(=O)CSc2nc(N)c(NC(=O)c3cccs3)c(=O)[nH]2)s1`, which “activity, negative = toxicity” value is on record?
Its value is inactive: 9.16%.

With `COc1ccc(/C=C2\C(=O)NCC(=O)N2Cc2ccccc2)cc1` as the compound, how does the Potency read?
Its Potency is inconclusive [cytotoxic, partial curve].

With `CCOC(=O)Cc1c(C)nc(-c2ccccc2)[nH]c1=O` as the compound, how does the activity, negative = toxicity read?
Its activity, negative = toxicity is inconclusive: -7.83% [cytotoxic].

For `c1ccc(Cc2nnc(N3CCCCC3)c3ccccc23)cc1`, which Potency is on record?
The Potency was inconclusive [cytotoxic, partial curve].

Which Potency does the source give for `CCc1ccccc1N(C)S(=O)(=O)c1ccc(-c2cc(C)no2)s1` here?
The Potency was inconclusive [cytotoxic, single point].

With `Cc1ccc(NC(=O)Cn2nnc(-c3ccccc3NC(=O)c3cccs3)n2)cc1` as the compound, how does the Potency read?
The Potency was active: 1.16 µM.

Which Potency does the source give for `Cc1ccc(NC(=O)[C@@H](C)NC(=O)[C@@H]2Cc3ccccc3CN2)cc1` here?
The Potency was inconclusive [rising, single point].

For `CCCCCc1c2c(cc(O)c1C(=O)O)OC(=O)c1cc(C(=O)CCCC)c(OC)cc1O2`, which Potency is on record?
Its Potency is inconclusive [cytotoxic, single point].

With `COc1ccc(C(=O)/C=C2\C(=O)Nc3ccc(Br)cc32)cc1` as the compound, how does the Potency read?
The Potency was inconclusive [cytotoxic, single point].

For `COc1ccc(COC(=O)c2cc(S(=O)(=O)N3CCCCC3)ccc2N2CCOCC2)cc1`, which “activity, negative = toxicity” value is on record?
Its value is inactive: 4.26%.

Which Potency does the source give for `C=CCn1c(SCC(=O)c2cccs2)nc2sc(CC)cc2c1=O` here?
The Potency was inconclusive [cytotoxic, single point].

For `Cc1oc2c(O)c(O)ccc2c(=O)c1-c1cnn(-c2ccccc2)c1`, which Potency is on record?
The Potency was inconclusive [cytotoxic, single point].

For `CN(C)CCCCOc1ccc(Br)cc1Cl`, which Potency is on record?
Its Potency is inconclusive [cytotoxic, single point].

For `CCOc1ccc(-n2c(SCC(=O)NC(C)CC)nc3n[nH]c(C)c3c2=N)cc1` (centres undefined), which Potency is on record?
Its Potency is inconclusive [cytotoxic, single point].

Which “activity, negative = toxicity” value does the source give for `O=C(NC(Cc1ccccc1)C(=O)N1CCN(c2ccc(F)cc2)CC1)c1ccccc1` (centres undefined) here?
The value was inactive: -0.485%.

For `Cc1cccc(N=Nc2c(N)n[nH]c2-c2ccc(Cl)cc2)c1`, which Potency is on record?
Its Potency is inconclusive [cytotoxic, single point].

Which “activity, negative = toxicity” value does the source give for `O=S1(=O)CC(N2CCC(Cc3ccccc3)CC2)CN1C1CCCCC1` (centres undefined) here?
Its value is inactive: -10.7%.

Which “activity, negative = toxicity” value does the source give for `CC(=O)c1c(C)n(-c2ccccc2)c2ccc(O)cc12` here?
Its value is inactive: 1.8%.

Which Potency does the source give for `COc1ccccc1N1CCN(C(CNS(=O)(=O)c2ccccc2)c2ccccc2)CC1` (centres undefined) here?
The Potency was inconclusive [cytotoxic, single point].

For `COc1ccc2nc(NC(=O)c3ccc(Br)s3)sc2c1`, which Potency is on record?
Its Potency is inconclusive [cytotoxic, single point].

With `O=C(CSc1nnnn1-c1cccnc1)Nc1ccccc1F` as the compound, how does the “activity, negative = toxicity” value read?
The value was inactive: -7.01%.
